Source: PubChem BioAssay AID1508623 (National Center for Advancing Translational Sciences (NCATS), 2021)
Among all 48,000 compounds or so, about 450 (0.94%) were called active. Not shown: some 19% with an inconclusive outcome. Calls follow the shape of the dose curve; as a rule, active = well fitted inhibition curve with a large enough effect; inconclusive = small, poorly fitted or top-dose-only effect; inactive = no such curve, though single readings can be large or run the other way. This is one part of the list.

Assay: Primary qHTS for Identification of Small Molecule Inhibitors of Huntingtin Promoter Activity; also: nearly all actives have a fitted effect of over 50% in size
Settings: HEK293 HTT promoter firefly luciferase reporter (activity 0% = vehicle and -100% = no light), 24 h; series mostly up to 57.5 µM; activity change, negative = inhibition: at the top concentration
Method in brief: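 Luminescence was read after Dual-Glo reagent and a 10 min room-temperature incubation. Values were normalized to vehicle (0% activity) and zero RLU (-100% activity). Reporter HEK293 cells had been exposed to compounds (up to 57.5 uM final) for 24 h.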

SMILES	activity change, negative = inhibition
CCOc1ccc(-n2c(SCc3nc(-c4ccc(OC)cc4)no3)nnc2-c2ccncc2)cc1	inactive: -24.5%
CCOc1cccc2cc(-c3nc4sc5c(c4c(=O)[nH]3)CCC(C(C)(C)C)C5)c(=O)oc12 (configuration not stated)	inactive: -4.93%
CC(C)Cc1ccc(C(C)C(=O)OCc2ccccn2)cc1 (configuration not stated)	inactive: -10.1%
CCOc1ccccc1NC(=O)Cn1c(=O)n(CCC(C)C)c(=O)c2cccnc21	inactive: -7.29%
O=C(COC(=O)c1cc(-c2cccs2)nc2ccccc12)c1ccc(Br)cc1	inactive: 8.14%
Cc1nc2ccccc2n1CCc1nc2c3ccccc3nc(SCc3cccc(F)c3)n2n1	inactive: -20%
CC1=C(C(=O)Nc2ccccc2)C(c2ccccc2C)n2ncc(C(=O)Nc3ccccc3)c2N1 (configuration not stated)	inactive: -17%
Cc1ccc2c(=O)c(C(=O)c3ccccc3)cn(CC(=O)Nc3ccc4c(c3)OCCO4)c2n1	inactive: 9.99%
Cn1c(=O)c2sccc2n2c(CCC(=O)NCc3ccc(F)cc3)nnc12	inactive: -2.35%
COc1ccc(CCNC(=O)CCn2c(=O)c3ccccc3n(CC(=O)Nc3ccccc3F)c2=O)cc1OC	inactive: -10.5%
O=C1c2oc3ccccc3c(=O)c2C(c2ccc(Br)cc2)N1c1ccccn1 (configuration not stated)	inactive: -6.07%
CCCCN(CC)CCNC(=O)Cn1cnc2sc(C)c(S(=O)(=O)N3CCC(C)CC3)c2c1=O	inactive: -10.9%
COC(=O)c1cnn(-c2ccc(C(=O)Nc3cccc(C(C)=O)c3)cc2)c1N	inactive: -6.86%
Cc1ccc(NC(=O)Cn2nc(C)c3nn(-c4ccc(Cl)cc4)c(C)c3c2=O)cc1C	inactive: -15.9%
Cn1c(=O)oc2cc(S(=O)(=O)N3CCC(C(=O)NCc4ccccc4Cl)CC3)ccc21	inactive: -14.7%
CC(=O)c1ccc(N2CCN(S(=O)(=O)c3c(C)nc4sc(C)cn4c3=O)CC2)cc1	inactive: -25.6%
Cc1cccc(OCc2cc(=O)n3c(-c4ccccc4)csc3n2)c1C	inactive: 11.2%
CCCn1c(SCc2nc(-c3ccccc3C)no2)nnc1-c1ccc(Cl)cc1	inactive: -28.7%
CCc1nn(CC(=O)N2CCN(c3cccc(C)c3C)CC2)c(=O)c2cc3occc3n12	inactive: -11.5%
Cc1cccc(N2CCN(C(=O)C3CCC(CNS(=O)(=O)c4ccc(Br)s4)CC3)CC2)c1C (configuration not stated)	inactive: -12%
COc1ccc(N2C(=O)CSC23C(=O)N(CC(=O)NC2CCCCC2)c2ccccc23)cc1 (configuration not stated)	inactive: -3%
CCCCn1cc(S(=O)(=O)c2ccc(C)c(C)c2)c(=O)c2cc(F)c(N3CCN(C)CC3)cc21	inactive: 7.29%
NC(=O)CSc1oc(-c2ccco2)nc1S(=O)(=O)c1ccc(Br)cc1	inactive: -19.2%
O=C(CN1C(=O)CCSc2ccc(S(=O)(=O)N3CCCC3)cc21)Nc1ccccc1	inactive: -7.94%

SMILES	activity change, negative = inhibition
CCC(C(=O)Nc1ccccc1C(=O)OC)n1c(C)c2cnn(-c3ccccc3)c(=O)c2c1C (configuration not stated)	inactive: -12.1%
CCC(Oc1ccccc1)C(=O)Nc1ccc(O)c(-c2nc3cc(C)ccc3o2)c1 (configuration not stated)	inactive: 13.3%
COc1ccc(NC(=O)Cn2c(=O)n(CCCC(=O)NCc3ccccc3OC)c(=O)c3ccccc32)cc1Cl	inactive: -26.6%
COc1cccc(NC(=O)CCS(=O)(=O)c2ccc3c(c2)oc(=O)n3C)c1	inactive: -13.3% [at 11.5 µM]
Cn1c(NCCCCO)nc2c1c(=O)n(Cc1ccc(Cl)cc1)c(=O)n2C	inactive: -15.6%
Cc1ccc(C)c(Cn2c(C(C)NC(=O)c3ccc(F)cc3)nc3ccccc32)c1 (configuration not stated)	inactive: 15.1%
Cc1c2cnn(CC(=O)N3CCN(c4ccccc4)CC3)c(=O)c2c(C)n1Cc1ccc(F)cc1	inactive: -28%
CCOc1ccccc1NC(=O)CCS(=O)(=O)c1cccc2nsnc12	inactive: -6.61%
CCn1c(=O)c2sccc2n2c(CCCC(=O)N3CCN(c4ccc(OC)cc4)CC3)nnc12	inactive: -22.3%
CCc1cccc(NC(=O)c2nnn(Cc3ccc(SC)cc3)c2N)c1	inactive: 3.82%
COc1ccc(N2CCN(C(=O)c3c(C)oc4ncnc(N5CCCCC5)c34)CC2)cc1	inactive: -23.4%
CCOCCCNC(=O)C(c1ccccc1)N(Cc1cccs1)C(=O)c1ccc(NC(C)=O)cc1 (configuration not stated)	inactive: -8.64%
Cc1cccc(N2CCN(C(=O)C3CCCN(S(=O)(=O)c4cccc5nsnc45)C3)CC2)c1C (configuration not stated)	inactive: 9.67%
Cc1cccc(-c2noc(CCCC(=O)NCc3ccco3)n2)c1	inactive: -26.6%
O=C(O)Cc1ccc(OCCNC[C@H](O)c2ccccc2)cc1	inactive: 6.47%
COCCn1c(CCC(=O)Nc2cc(C)ccc2C)nc2cccnc21	inactive: 9.91%
CC(=O)Nc1ccc(/C=N/NC(N)=S)cc1	inactive: 8.53%
O=C(Nc1ccc(Br)cc1)C1CCCN(S(=O)(=O)c2ccc(Br)s2)C1 (configuration not stated)	inactive: -14.9%
CC(C(=O)O)c1cccc(C(=O)c2ccccc2)c1 (configuration not stated)	inactive
CCOc1ccc(S(=O)(=O)N2CCN(c3cc(Cl)ccc3Cl)CC2)c2ccccc12	inactive: 6.16%
CCc1ccccc1NC(=O)C(CC)Sc1ncnc2c1sc1ccccc12 (configuration not stated)	inactive: 5.32%
O=C(CCCCCn1c(=O)[nH]c2ccccc2c1=O)NCc1cccc(Cl)c1	inactive: 14.7%
Cn1c(=O)c2c(SCC(=O)N3CCc4ccccc43)nc(-c3cccc(F)c3)nc2n(C)c1=O	inactive: -10.6%
